# Experimental data taken from PubChem BioAssay AID1468 (National Center for Advancing Translational Sciences (NCATS), 2008).
# The whole screen tested about 280,000 compounds, of which about 1,100 (0.39%) were called active. This list was built around the results that the source calls inconclusive (neither active nor inactive); the mix of calls is not that of the screen. Calls come from the whole dose curve; as a rule, active = well fitted inhibition curve with a large enough effect; inconclusive = small, poorly fitted or top-dose-only effect, or effect the other way; inactive = flat fitted curve, though single readings scatter. Potencies of inconclusive entries are left out as doubtful fits.
# Biological target: Microtubule-associated protein tau (Homo sapiens) (UniProt P10636)
# Sequence of UniProt P10636 (P10636 whole entry, looked up): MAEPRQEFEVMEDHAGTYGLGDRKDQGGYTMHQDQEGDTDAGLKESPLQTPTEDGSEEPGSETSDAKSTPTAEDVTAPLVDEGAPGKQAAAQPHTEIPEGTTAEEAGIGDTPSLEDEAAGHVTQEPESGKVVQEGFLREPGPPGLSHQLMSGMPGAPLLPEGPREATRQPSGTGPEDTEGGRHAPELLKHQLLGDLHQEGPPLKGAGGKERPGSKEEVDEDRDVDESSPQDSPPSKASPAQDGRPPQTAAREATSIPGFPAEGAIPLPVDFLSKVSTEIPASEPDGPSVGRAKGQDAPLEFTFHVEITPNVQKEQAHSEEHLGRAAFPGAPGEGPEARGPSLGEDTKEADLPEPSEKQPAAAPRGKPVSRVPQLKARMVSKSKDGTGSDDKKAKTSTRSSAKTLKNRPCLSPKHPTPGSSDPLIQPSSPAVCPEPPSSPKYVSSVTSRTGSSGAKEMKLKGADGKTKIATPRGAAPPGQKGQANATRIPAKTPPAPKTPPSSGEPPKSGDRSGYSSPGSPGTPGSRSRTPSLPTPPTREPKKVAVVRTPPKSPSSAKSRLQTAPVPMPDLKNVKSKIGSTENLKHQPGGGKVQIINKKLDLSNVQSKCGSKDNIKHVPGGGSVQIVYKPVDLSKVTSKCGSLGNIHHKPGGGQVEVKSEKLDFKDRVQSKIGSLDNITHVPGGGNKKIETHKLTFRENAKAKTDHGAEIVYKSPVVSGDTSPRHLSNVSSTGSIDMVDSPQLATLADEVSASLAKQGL
# Test: qHTS for Inhibitors of Tau Fibril Formation, Fluorescence Polarization; note: nearly all actives have a fitted effect of over 55% in size
# Details: K18 P301L tau heparin fibrillization, Alexa594 FP, 6 h; series mostly up to 57.7 µM; activity, negative = inhibition: at the top concentration
# How it was run: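 Steps: dispense K18 P301L tau (15 uM plus 0.24 uM Alexa 594 tracer, final) in pH 7 sodium acetate; add compound; add heparin (20 uM final); incubate 6 hr, 37 C; add ThT (30 uM final); after 1 hr ambient, read FP.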
# % is set by controls: 0 for no effect and ±100 for the full control effect; potency is the fitted concentration of half-maximal effect; tags give direction and shape of the fitted curve.
Compound,"activity, negative = inhibition",Potency
O=C(O)c1ccc(CN2CCOCC2)o1,inactive: 0.0621%,
CCOc1ccc(-c2nnn(CC(=O)c3ccc4c(c3)OCCO4)n2)cc1,,"inconclusive [inhibitor, single point]"
Cc1cc(=S)c2cccc(C)c2[nH]1,,"inconclusive [inhibitor, partial curve]"
Cc1ccc(NC(=O)c2ccccc2NC(=O)Cc2ccccc2)cc1,,"inconclusive [inhibitor, single point]"
CCOc1ccc(NC2=NC(C)(C)N=C(N)N2)cc1,,"inconclusive [inhibitor, full curve, poor fit]"
Cc1ccc2[nH]c(=O)c3cc(C(=O)N4CCN(c5ccccc5F)CC4)sc3c2c1,inactive: -12.4%,
CN(c1ccccc1)S(=O)(=O)c1cccc(NC(=O)Cn2cnc3ccccc3c2=O)c1,,"inconclusive [inhibitor, full curve, poor fit]"
COc1ccccc1NC(=O)CSc1oc(-c2cccs2)nc1S(=O)(=O)c1ccc(C)cc1,,"inconclusive [inhibitor, full curve, poor fit]"
Cc1cccc(C)c1OCc1nc2ccccc2c(=O)n1/N=C/c1c[nH]c2ccccc12,,"inconclusive [inhibitor, partial curve]"
Cc1cc(Br)ccc1NC(=O)CNC(=O)CN(C)Cc1nc2ccccc2c(=O)[nH]1,,"inconclusive [inhibitor, single point]"
CN1CCN(C(=S)c2cn(Cc3ccccc3F)c3ccccc23)CC1,inactive: 10.3%,
O=C(O)c1cc(N/N=C/c2ccc(N3CCOCC3)s2)ccc1Cl,,"inconclusive [inhibitor, partial curve]"
NNC(=O)c1sc2cc(C(F)(F)F)cnc2c1-c1ccccn1,inactive: -0.651%,
Oc1cccc(Nc2nc(-c3ccccc3)nc3ccccc23)c1,,active: 14.1 µM
CC1(C)C(=O)N(CC(=O)Nc2ccc(OC(F)(F)F)cc2)c2ccccc21,inactive: -15.4%,
Cc1cc(NC(=O)c2ccc(Cl)c(Cl)c2)ccc1-c1cc2ccccc2oc1=O,,"inconclusive [inhibitor, partial curve, poor fit]"
COc1ccc(C(NC(C)=O)c2cc(Cl)c3cccnc3c2O)cc1OC (stereo not drawn),inactive: 17.5%,
COc1ccccc1CNc1ccc(C(=O)O)cc1,inactive: 11.2%,
COc1ccc(NC(=O)Cn2c(=O)n(-c3ccccc3)c(=O)c3ccc(C(=O)NCc4ccc5c(c4)OCO5)cc32)cc1,,"inconclusive [inhibitor, partial curve]"
CC(=O)Nc1ccc(C(=O)OCc2ccccc2Cl)cc1,,"inconclusive [inhibitor, partial curve]"
Cc1ccc(CN=C2NC(=O)C(CC(=O)NCCc3ccccc3)S2)cc1 (stereo not drawn),,"inconclusive [inhibitor, partial curve]"
Cc1ccc(NC(=O)c2ccccc2N(C)S(=O)(=O)c2ccccc2)c(C)c1,inactive: 9.88%,

Compound,"activity, negative = inhibition",Potency
COc1cccc(NC(=O)CCNS(=O)(=O)c2ccc3c(c2)CCCC(=O)N3)c1,inactive: -2.84%,
S=C(NCCc1ccccn1)Nc1cc(Cl)cc(Cl)c1,,"inconclusive [inhibitor, partial curve]"
COC(=O)c1ccc(NC(=S)NNC(=O)c2ccccc2)cc1,inactive: -1.21%,
CCOc1ccc(CNC(=O)c2cnc(SC)nc2CC)cc1,inactive: 0.625%,
NCCCCCCNS(=O)(=O)c1cccc2c(Cl)cccc12,,inactive
N#Cc1ncc(-c2ccc3c(c2)OCCOCCOCCOCCOCCO3)nc1C#N,,"inconclusive [inhibitor, partial curve]"
O=C(Cn1c(=O)n(-c2ccccc2)c(=O)c2ccc(C(=O)NCc3ccc4c(c3)OCO4)cc21)Nc1ccc(Br)cc1F,,"inconclusive [inhibitor, partial curve]"
COc1ccc(CNc2nc(-c3ccc(OC)c(OC)c3)cc(C(F)(F)F)n2)cc1,,"inconclusive [inhibitor, partial curve, poor fit]"
COc1ccccc1Nc1nc(-c2sc(NC(=O)CC(C)C)nc2C)cs1,inactive: 4.72%,
COc1cccc(S(=O)(=O)NCc2ccc(C(=O)Nc3ccc(Cl)cc3)cc2)c1,,"inconclusive [inhibitor, partial curve, poor fit]"
O=C1CC(SC(=Nc2ccccc2)Nc2ccccc2)C(=O)N1c1cccc2ccccc12 (stereo not drawn),,"inconclusive [inhibitor, single point]"
Cc1c([N+](=O)[O-])c([N+](=O)[O-])nn1CC(=O)NCCc1ccccc1,,"inconclusive [inhibitor, single point]"
COC(=O)/C(=C\Nc1ccc(Cl)c2ccccc12)c1ncc(C(F)(F)F)cc1Cl,,"inconclusive [inhibitor, single point]"
CCOC(=O)N1CCc2c(sc3c2c(=O)n(Cc2ccccc2)c(=O)n3CC(=O)Nc2ccccc2F)C1,,"inconclusive [inhibitor, partial curve, poor fit]"
COc1ccc(C)cc1NC(=O)C(CCSC)NS(=O)(=O)c1ccc2c(c1)oc(=O)n2C (stereo not drawn),inactive: 1.19%,
CCn1nnc2cc(C(=O)Nc3cccc(C(F)(F)F)c3)ccc21,,"inconclusive [inhibitor, partial curve]"
CCN1CC=C2C(C#N)=C(N)C(C#N)(C#N)C(CCc3ccccc3)C2C1 (stereo not drawn),inactive: -17.3%,
CCOc1cc(C2CC(=O)N3CN(C4CCCCC4)CSC3=C2C#N)ccc1O (stereo not drawn),,"inconclusive [inhibitor, single point]"
CC(C)CN1C(=O)c2ccccc2C1(O)Cc1ccccc1 (stereo not drawn),inactive: -0.633%,
COc1cccc(NC(=O)c2sc3nc(C)c(C(=O)Nc4ccc(C)cc4C)c(-c4ccc(Br)cc4)c3c2N)c1,,"inconclusive [inhibitor, partial curve, poor fit]"
C[C@@H](C(=O)Nc1ccc2ccccc2c1)[C@@H]1C[C@@]1(C)[C@@H](NS(=O)(=O)c1ccc(-c2ccccc2)cc1)c1ccccc1,,"inconclusive [inhibitor, single point]"
